Laboratory results from PubChem BioAssay AID588591 (National Center for Advancing Translational Sciences (NCATS), 2011).
About 4,700 (1.2%) of roughly 390,000 compounds were called active. The shares of active, inactive and inconclusive entries below differ from those in the screen. Calls come from the whole dose curve; as a rule, active = well fitted inhibition curve with a large enough effect; inconclusive = small, poorly fitted or top-dose-only effect, or another doubt; inactive = no such curve, though single readings can be large or run the other way. Potencies of inconclusive entries are doubtful fits and often do not repeat.

The compounds below were run against DNA polymerase eta (Homo sapiens) (UniProt Q9Y253) (assay: qHTS for Inhibitors of Polymerase Eta). Details: recombinant Pol eta, fluorescent DNA replication assay; series mostly up to 114 µM.
Description: The Y-family of DNA polymerases, such as Pol eta, are specifically involved in DNA repair. Pol eta copies undamaged DNA with a lower fidelity than other DNA-directed polymerases. However, it accurately replicates UV-damaged DNA; when thymine dimers are present, this polymerase inserts the complementary nucleotides in the newly synthesized DNA, thereby bypassing the lesion and suppressing the mutagenic effect of UV-induced DNA damage. […] Thus, while pol eta's (and most likely iota's) normal function is to protect humans against the deleterious consequences of DNA damage, under certain conditions they can have deleterious effects on human health. As a consequence, we propose to utilize a high throughput replication assay to identify small molecule inhibitors of pol eta. In a collaboration between the National Institute of Child Health & Human Development (NICHD) and NIH Chemical Genomics Center, a high-throughput, fluorescent screen was developed to screen the NIH Molecular Libraries Small Molecule Repository (MLSMR). This screen is used to identify inhibitors of pol eta. NIH Chemical Genomics Center [NCGC] NIH Molecular Libraries Probe Centers Network [MLPCN] MLPCN Grant: MH090825 Assay Submitter (PI): Roger Woodgate, NICHD)
Three microliters of reagents (buffer in column 3 and 4 as negative control and 10 nM Pol eta in columns 1, 2, and 5-48) were dispensed into a 1,536-well black solid-bottomed plate. Compounds (23 nL) were transferred via Kalypsys pin tool equipped with 1536-pin array. The plates were then incubated for 15 min at room temperature, and 1 µL substrate (50 nM final concentration) was added to start the reaction and kinetically read twice at 0 min and 10 min on the Viewlux reader
Potency is the fitted concentration of half-maximal effect; tags give direction and shape of the fitted curve.

Sequence of UniProt Q9Y253 (Q9Y253 whole entry, looked up): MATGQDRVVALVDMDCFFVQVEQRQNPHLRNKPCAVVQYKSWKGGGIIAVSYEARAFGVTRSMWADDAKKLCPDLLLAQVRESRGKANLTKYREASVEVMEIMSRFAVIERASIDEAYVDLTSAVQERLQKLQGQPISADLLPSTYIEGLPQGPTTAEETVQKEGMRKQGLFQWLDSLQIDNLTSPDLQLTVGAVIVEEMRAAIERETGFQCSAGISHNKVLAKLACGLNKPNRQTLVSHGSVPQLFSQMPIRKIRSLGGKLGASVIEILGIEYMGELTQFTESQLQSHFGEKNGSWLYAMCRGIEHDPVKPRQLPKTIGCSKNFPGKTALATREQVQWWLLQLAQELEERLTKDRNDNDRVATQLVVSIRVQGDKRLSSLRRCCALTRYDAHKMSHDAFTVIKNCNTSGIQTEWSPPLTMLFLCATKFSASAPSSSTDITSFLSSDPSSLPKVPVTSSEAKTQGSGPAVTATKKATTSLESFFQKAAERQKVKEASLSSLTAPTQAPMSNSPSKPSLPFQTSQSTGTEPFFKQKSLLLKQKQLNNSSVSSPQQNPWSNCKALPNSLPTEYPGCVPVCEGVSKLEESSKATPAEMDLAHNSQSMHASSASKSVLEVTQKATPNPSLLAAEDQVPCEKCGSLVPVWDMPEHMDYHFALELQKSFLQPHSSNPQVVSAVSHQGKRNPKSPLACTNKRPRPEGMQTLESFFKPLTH

SMILES | Potency
Cc1c(CC(=O)O)c(=O)oc2c(C)c3occ(-c4ccc(Br)cc4)c3cc12 | inconclusive: 20 µM [inhibitor, full curve, poor fit]
O=C(Nc1ccc(C(=O)O)cc1)/C(=C\C=C\c1ccccc1)NC(=O)c1cccc(Br)c1 | inconclusive: 89.1 µM [inhibitor, single point]
CCc1nnc(NS(=O)(=O)c2ccc(N/C=C(\C=O)c3nc4cc(Cl)ccc4o3)cc2)s1 | inconclusive: 56.2 µM [inhibitor, partial curve, poor fit]
O=C(O)c1cc(NC(=O)c2ccc(Br)cc2)cc(NC(=O)c2ccc(Br)cc2)c1 | inconclusive: 79.4 µM [inhibitor, partial curve]
CCOC(=O)C1=C(C)N=c2s/c(=C\c3ccc(OCC(=O)O)c(OC)c3)c(=O)n2C1c1ccc(OC)cc1 (centres undefined) | inconclusive: 89.1 µM [inhibitor, partial curve, poor fit]
Cc1ccccc1N/N=C/c1sc(=O)n(Cc2cccc(C(=O)O)c2)c1Cl | inconclusive: 25.1 µM [inhibitor, full curve, poor fit]
COc1cc(/C=C2\C(=N)N3N=C(S(C)(=O)=O)SC3=NC2=O)ccc1OC(=O)c1cccs1 | inconclusive: 89.1 µM [inhibitor, single point]
O=C(O)COc1ccccc1/C=N/NC(=O)CSc1nnc(SCc2cccc3ccccc23)s1 | inconclusive: 89.1 µM [inhibitor, partial curve, poor fit]
COc1cc(/C=C2\C(=N)N3N=C(S(C)(=O)=O)SC3=NC2=O)cc(OC)c1OCCOc1cccc(C)c1 | inconclusive: 79.4 µM [inhibitor, single point]
